Reference: paper PMC8233286
Positions count from the first letter of the chain named. Results are given in words; binding and its absence hold for the method and conditions named. Binding seen in cells or lysates may run through a third protein. Some results given as binding are weak or reduced against the parent protein; the word gives no strength. Where a sequence is shown, tags or fusion partners need not be part of it.

T1: miR2_L438P (murine iRhom2 with L438P in the first helix of the IRHD) (mouse) (UniProt Q80WQ6)
T1 sequence: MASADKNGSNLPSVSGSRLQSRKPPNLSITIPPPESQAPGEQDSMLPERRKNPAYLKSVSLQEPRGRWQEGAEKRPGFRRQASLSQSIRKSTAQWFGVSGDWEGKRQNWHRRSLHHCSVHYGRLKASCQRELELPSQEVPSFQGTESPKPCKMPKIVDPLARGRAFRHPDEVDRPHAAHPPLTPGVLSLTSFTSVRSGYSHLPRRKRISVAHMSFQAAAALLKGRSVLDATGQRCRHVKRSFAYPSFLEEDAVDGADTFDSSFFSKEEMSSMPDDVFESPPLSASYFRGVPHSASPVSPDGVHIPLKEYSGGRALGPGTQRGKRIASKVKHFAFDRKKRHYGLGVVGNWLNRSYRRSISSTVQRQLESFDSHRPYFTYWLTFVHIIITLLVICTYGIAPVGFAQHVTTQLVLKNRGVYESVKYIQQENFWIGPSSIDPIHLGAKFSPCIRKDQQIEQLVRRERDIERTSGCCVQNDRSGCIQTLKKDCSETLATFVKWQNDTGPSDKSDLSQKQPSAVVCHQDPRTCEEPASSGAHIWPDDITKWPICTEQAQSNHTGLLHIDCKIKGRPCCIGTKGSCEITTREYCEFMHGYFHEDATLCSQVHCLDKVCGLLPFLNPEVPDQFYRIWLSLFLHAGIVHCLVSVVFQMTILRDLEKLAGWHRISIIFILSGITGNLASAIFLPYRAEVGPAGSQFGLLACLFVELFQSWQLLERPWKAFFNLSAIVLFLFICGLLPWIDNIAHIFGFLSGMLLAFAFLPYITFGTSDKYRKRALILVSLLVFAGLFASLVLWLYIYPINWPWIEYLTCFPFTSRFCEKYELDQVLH

T2: miR2_W538S (murine iRhom2 with W538S in iCERES), in HEK293 cells (mouse) (UniProt Q80WQ6)
T2 sequence: T1 sequence with P438L, W538S

T3: murine wt_iRhom2 (wild-type) construct with 3xHA tag, in HEK293 cells (mouse) (UniProt Q80WQ6)
T3 sequence: T1 sequence with P438L

B1: myc-tagged human calnexin (CANX) (protein, UniProt P27824 21-592)
chain: HDGHDDDVIDIEDDLDDVIEEVEDSKPDTTAPPSSPKVTYKAPVPTGEVYFADSFDRGTLSGWILSKAKKDDTDDEIAKYDGKWEVEEMKESKLPGDKGLVLMSRAKHHAISAKLNKPFLFDTKPLIVQYEVNFQNGIECGGAYVKLLSKTPELNLDQFHDKTPYTIMFGPDKCGEDYKLHFIFRHKNPKTGIYEEKHAKRPDADLKTYFTDKKTHLYTLILNPDNSFEILVDQSVVNSGNLLNDMTPPVNPSREIEDPEDRKPEDWDERPKIPDPEAVKPDDWDEDAPAKIPDEEATKPEGWLDDEPEYVPDPDAEKPEDWDEDMDGEWEAPQIANPRCESAPGCGVWQRPVIDNPNYKGKWKPPMIDNPSYQGIWKPRKIPNPDFFEDLEPFRMTPFSAIGLELWSMTSDIFFDNFIICADRRIVDDWANDGWGLKKAADGAAEPGVVGQMIEAAEERPWLWVVYILTVALPVFLVILFCCSGKKQTSGMEYKKTDAPQPDVKEEEEEKEEEKDKGDEEEEGEEKLEEKQKSDAEEDGGTVSQEEEDRKPKAEEDEILNRSPRNRKPRRE
B2: myc-tagged human syntaxin 6 (STX6_myc) (protein, UniProt O43752 1-255)
chain: MSMEDPFFVVKGEVQKAVNTAQGLFQRWTELLQDPSTATREEIDWTTNELRNNLRSIEWDLEDLDETISIVEANPRKFNLDATELSIRKAFITSTRQVVRDMKDQMSTSSVQALAERKNRQALLGDSGSQNWSTGTTDKYGRLDRELQRANSHFIEEQQAQQQLIVEQQDEQLELVSGSIGVLKNMSQRIGGELEEQAVMLEDFSHELESTQSRLDNVMKKLAKVSHMTSDRRQWCAIAILFAVLLVVLILFLVL
B3: myc-tagged human syntaxin 10 (STX10_myc) (protein, UniProt O60499 1-249)
chain: MSLEDPFFVVRGEVQKAVNTARGLYQRWCELLQESAAVGREELDWTTNELRNGLRSIEWDLEDLEETIGIVEANPGKFKLPAGDLQERKVFVERMREAVQEMKDHMVSPTAVAFLERNNREILAGKPAAQKSPSDLLDASAVSATSRYIEEQQATQQLIMDEQDQQLEMVSGSIQVLKHMSGRVGEELDEQGIMLDAFAQEMDHTQSRMDGVLRKLAKVSHMTSDRRQWCAIAVLVGVLLLVLILLFSL
B4: myc-tagged mouse SEC22a (SEC22a_myc) (protein, UniProt Q8BH47 1-307)
chain: MSMILSASVIRVRDGLPLSASTDYEQSTGMQECRKYFKMLSRKLAQFPDRCTLKTGRYNINFISSLGVSYMMLCSENYPNVLAFSFLDELQKEFITTYNMMKTNTAVRPYCFIEFDNFIQRTKQRYNNPRSLSTKINLSDMQMEIKLRPPYQIPMCELGSANGVTSAFSVDCKGAGKISSAHQRLEPATLSGIVAFILSLLCGALNLIRGFHAIESLLQSDGEDLNYIIAFFLGTAACLYQCYLLVYYTSWRNVKSFLTFGLICLCNMYLYELRNLWQLFFHVTVGAFVTLQIWLRQAQGKAPDHDV

Molecular target: T1, miR2_L438P (murine iRhom2 with L438P in the first helix of the IRHD) (mouse)
Experiment: co-IP; HA-tagged iRhom construct as bait, anti-HA magnetic beads, lysate of stably expressing HEK293 cells additionally transfected with a myc-tagged protein; western blot with α-myc antibody

binding	Binder
binds	B1

Molecular target: T2, miR2_W538S (murine iRhom2 with W538S in iCERES), in HEK293 cells (mouse)
Experiment: as above

binding	Binder
binds	B1
no binding	B2
binds	B3
binds	B4

Molecular target: T3, murine wt_iRhom2 (wild-type) construct with 3xHA tag, in HEK293 cells (mouse)
Experiment: as above

binding	Binder
binds	B1
binds	B2
binds	B3
binds	B4
